In PMC9911399, “Two distinct binding modes provide the RNA-binding protein RbFox with extraordinary sequence specificity” one finds binding signal data, which are given here for 20 molecules.

Changes are numbered by the printed parent chain; changes in the protein carry UniProt numbers. This is one part of the list.

The chains are these.
B1: CGCGGGC (DNA:RNA)
RNA: GGGAGACCGGAAUUCAGAUUGUCCCGCGGGCUUAAAUCCCGUCGUAGCCACCA
DNA 1: CAATCTGAATTCCGGTCTCCC
DNA 2: TGGTGGCTACGACGGGATT
B2: UUGUCGG (DNA:RNA)
RNA: B1 RNA with C25U, G26U, C27G, G28U, G29C, C31G
DNA 1: CAATCTGAATTCCGGTCTCCC
DNA 2: TGGTGGCTACGACGGGATT
B3: GUCUGGC (DNA:RNA)
RNA: B1 RNA with C25G, G26U, G28U
DNA 1: CAATCTGAATTCCGGTCTCCC
DNA 2: TGGTGGCTACGACGGGATT
B4: GACAGCG (DNA:RNA)
RNA: B1 RNA with C25G, G26A, G28A, G30C, C31G
DNA 1: CAATCTGAATTCCGGTCTCCC
DNA 2: TGGTGGCTACGACGGGATT
B5: GCAAAAG (DNA:RNA)
RNA: GGGAGACCGGAAUUCAGAUUGUCCGCAAAAGUUAAAUCCCGUCGUAGCCACCA
DNA 1: CAATCTGAATTCCGGTCTCCC
DNA 2: TGGTGGCTACGACGGGATT
B6: GGCAUCU (DNA:RNA)
RNA: B1 RNA with C25G, G28A, G29U, G30C, C31U
DNA 1: CAATCTGAATTCCGGTCTCCC
DNA 2: TGGTGGCTACGACGGGATT
B7: CGGACUC (DNA:RNA)
RNA: B1 RNA with C27G, G28A, G29C, G30U
DNA 1: CAATCTGAATTCCGGTCTCCC
DNA 2: TGGTGGCTACGACGGGATT
B8: UCGGAUC (DNA:RNA)
RNA: B1 RNA with C25U, G26C, C27G, G29A, G30U
DNA 1: CAATCTGAATTCCGGTCTCCC
DNA 2: TGGTGGCTACGACGGGATT
B9: CCGAGUU (DNA:RNA)
RNA: B1 RNA with G26C, C27G, G28A, G30U, C31U
DNA 1: CAATCTGAATTCCGGTCTCCC
DNA 2: TGGTGGCTACGACGGGATT
B10: UGAAGAC (DNA:RNA)
RNA: B1 RNA with C25U, C27A, G28A, G30A
DNA 1: CAATCTGAATTCCGGTCTCCC
DNA 2: TGGTGGCTACGACGGGATT
B11: UCUUAGG (DNA:RNA)
RNA: B5 RNA with G25U, A27U, A28U, A30G
DNA 1: CAATCTGAATTCCGGTCTCCC
DNA 2: TGGTGGCTACGACGGGATT
B12: UGUUUAC (DNA:RNA)
RNA: B1 RNA with C25U, C27U, G28U, G29U, G30A
DNA 1: CAATCTGAATTCCGGTCTCCC
DNA 2: TGGTGGCTACGACGGGATT
B13: GGAUCCA (DNA:RNA)
RNA: B5 RNA with C26G, A28U, A29C, A30C, G31A
DNA 1: CAATCTGAATTCCGGTCTCCC
DNA 2: TGGTGGCTACGACGGGATT
B14: GAUAUGG (DNA:RNA)
RNA: B5 RNA with C26A, A27U, A29U, A30G
DNA 1: CAATCTGAATTCCGGTCTCCC
DNA 2: TGGTGGCTACGACGGGATT
B15: CCCUAAA (DNA:RNA)
RNA: B5 RNA with G25C, A27C, A28U, G31A
DNA 1: CAATCTGAATTCCGGTCTCCC
DNA 2: TGGTGGCTACGACGGGATT
B16: CGGAGCA (DNA:RNA)
RNA: B1 RNA with C27G, G28A, G30C, C31A
DNA 1: CAATCTGAATTCCGGTCTCCC
DNA 2: TGGTGGCTACGACGGGATT
B17: AGCGGUG (DNA:RNA)
RNA: B1 RNA with C25A, G30U, C31G
DNA 1: CAATCTGAATTCCGGTCTCCC
DNA 2: TGGTGGCTACGACGGGATT
B18: CCACGGU (DNA:RNA)
RNA: B1 RNA with G26C, C27A, G28C, C31U
DNA 1: CAATCTGAATTCCGGTCTCCC
DNA 2: TGGTGGCTACGACGGGATT
B19: UAGGCUU (DNA:RNA)
RNA: B1 RNA with C25U, G26A, C27G, G29C, G30U, C31U
DNA 1: CAATCTGAATTCCGGTCTCCC
DNA 2: TGGTGGCTACGACGGGATT
B20: AAUCGUC (DNA:RNA)
RNA: B1 RNA with C25A, G26A, C27U, G28C, G30U
DNA 1: CAATCTGAATTCCGGTCTCCC
DNA 2: TGGTGGCTACGACGGGATT

This experiment addresses T1, RBFOX1 RRM (Homo sapiens, UniProt Q9NWB1 109-208).
T1 sequence: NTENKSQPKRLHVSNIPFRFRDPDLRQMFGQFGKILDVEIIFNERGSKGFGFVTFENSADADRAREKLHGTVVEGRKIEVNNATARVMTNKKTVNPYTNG
Kind of experiment: EMSA; HiTS-Eq, 1 nM pool, 10 min; buffer printed only for the single-RNA assays: 10 mM Tris pH 7.5, 150 mM NaCl, 3.4 mM EDTA, 0.001% NP-40, 30 C. The settings on record: tags: His6 N-terminal (pET28a); label: 5' 32P. The essentials: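 A pool of RNA with 7 randomized nucleotides, 5′-radiolabelled and with DNA-annealed flanks, was equilibrated at 1 nM for 10 min in 50 µL with purified RbFox RRM, wild type or mutant, across increasing protein concentrations. Free RNA was separated by 8% native PAGE, excised, reverse-transcribed, barcoded by PCR and sequenced. Relative association constants were obtained from read-count changes of each RNA species versus the control reaction and normalised to the cognate motif.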
(Mobility shift assays separate free from complexed probe on a gel.)
As for B1, the binding signal is 0.00483 KA relative to UGCAUGU.

As to B2, the binding signal is 0.0235 KA relative to UGCAUGU.

As for B3, the binding signal was 0.0161 KA relative to UGCAUGU.

In the case of B4, the binding signal was 0.0141 KA relative to UGCAUGU.

For B5, the binding signal is 0.00442 KA relative to UGCAUGU.

For the molecule B6, the binding signal was 0.0161 KA relative to UGCAUGU.

Regarding B7, the binding signal is 0.00791 KA relative to UGCAUGU.

Consider B8, for which the binding signal is 0.0104 KA relative to UGCAUGU.

For B9, the binding signal is 0.00981 KA relative to UGCAUGU.

With B10, the binding signal is 0.0147 KA relative to UGCAUGU.

In the case of B11, the binding signal was 0.00965 KA relative to UGCAUGU.

B12: the binding signal is 0.0167 KA relative to UGCAUGU.

Take B13: the binding signal was 0.00197 KA relative to UGCAUGU.

Take B14: the binding signal was 0.0167 KA relative to UGCAUGU.

With B15, the binding signal was 0.00711 KA relative to UGCAUGU.

Regarding B16, the binding signal is 0.0212 KA relative to UGCAUGU.

Consider B17, for which the binding signal was 0.0201 KA relative to UGCAUGU.

Consider B18, for which the binding signal is 0.00645 KA relative to UGCAUGU.

Regarding B19, the binding signal is 0.0145 KA relative to UGCAUGU.

Consider B20, for which the binding signal is 0.00708 KA relative to UGCAUGU.
